Legend:
[1] = system: AMB-BT-0112T cells with FGFR3-TACC3 fusion; assay: Subcutaneous glioblastoma PDX model; format: in vivo, BALB/c nude mice; conditions: AMB-BT-0112T PDX, 8 mg/kg, QW, 2 times, day 33
Description: 2) AMB-BT-0112T cells with FGFR3-TACC3 fusion (GBM, patients-derived cells) in exponential growth stage were collected and counted for tumor inoculation. 0.1 mL of matrix gel buffer (PBS:Matrigel=1:1) was used to subcutaneously inject 1×10^6 cells into the right flank of SPF female BALB/c nude mice aged 6-8 weeks.
The tumor diameter was measured with a caliper and the tumor volume was calculated according to the formula V=0.5 a×b^2 (wherein a is the long diameter of the tumor and b is the short diameter of the tumor). When the mean tumor volume was about 100-300 mm^3, the mice were randomized into vehicle group, and ADC20 8 mg/kg group. The day of first administration is defined as day 0. Mice in the vehicle group were given the solvent of ADC drugs with the same frequency and administration route. The tumor volume of mice in each group was measured twice a week.

UM-UC1 cells = assay: Bladder cancer CDX model; format: in vivo, Balb/c nude mice; conditions: 8 mg/kg, QW, 2 times, day 17
Description: 8.4) UM-UC1 cells in exponential growth stage were collected and counted for tumor inoculation. 0.1 mL of matrix gel buffer (PBS:Matrigel=1:1) was used to subcutaneously inject 10×10^5 cells into the right flank of SPF female Balb/c nude mice aged 6-8 weeks.
The tumor diameter was measured with a caliper and the tumor volume was calculated according to the formula V=0.5 a×b^2. When the mean tumor volume was about 100-300 mm^3, the mice were randomized into vehicle group and ADC20 8 mg/kg group. The day of first administration is defined as day 0. Mice in the vehicle group were given the solvent of ADC drugs with the same frequency and administration route. The tumor volume of mice in each group was measured twice a week. The experiment was end on day 17, and the tumor growth inhibition rate (TGI) was calculated as follows: TGI (%)=[1−(the mean tumor volume of the treatment group on the end day−the mean tumor volume of the treatment group on the first day)/(the mean tumor volume of the vehicle group on the end day−the mean tumor volume of the vehicle group on the first day)]×100%.

[2] = system: Multiple myeloma cells KMS-11; assay: Internalization activity of ADC by flow cytometry; format: cell-based; conditions: 1 nM, 37° C., 0 min to 4h, FIG. 10
Description: Multiple myeloma cells KMS-11 (JCRB, JCRB1178) in good viability, were treated with accutase, collected, suspended in serum-free RPMI medium. 1.0×10^5 cells were dyed with 1000 times diluted LIVE/DEAD™ Fixable Near-IR Dead Cell Stain dye for 30 min at RT in dark. And washed twice by cold FACS buffer to remove the excess dye and cells were incubated with tested drugs solution with the final concentration of 1 nM for 30 min on ice. After the surface binding, the antibody-cell mixture was washed by cold FACS buffer and serum-free RPMI medium to remove the excess antibody. Then antibody-bound cells were incubated at 37° C. CO2 incubator for 0 min, 10 min, 30 min, 1 h, 2 h and 4h, respectively, for antibody internalization. After incubation the antibody bonded cells were washed with Flow Cytometry Staining Buffer and fluorescence labeled by ice cold goat anti-human-IgG-IgG cross-adsorbed secondary antibody conjugated with Alexa Fluor 488 (Invitrogen, A-11013, Carlsbad, CA, USA) diluted 1:300 in staining buffer at 4° C. for 30 min. After the fluorescence labelling, the antibody-cell mixture was washed twice again and analyzed by flow cytometry.
The MFI data was normalized to MFI at 0 min, which was defined as 100%. The result was analyzed by GraphPad Prism 9.

RT112 cells = assay: Bladder cancer CDX model; format: in vivo, BALB/c nude mice
Description: 8.1) RT112 cells in exponential growth stage were collected and counted for tumor inoculation. 0.2 mL of matrix gel buffer (PBS:Matrigel=1:1) was used to subcutaneously inject 10×10^6 cells into the right flank of SPF female BALB/c nude mice aged 6-8 weeks.
The tumor diameter was measured with a caliper and the tumor volume was calculated according to the formula V=0.5 a×b^2 (wherein a is the long diameter of the tumor and b is the short diameter of the tumor). When the mean tumor volume was about 100-300 mm^3, the mice were randomized into vehicle group, ADC19 5 mg/kg group and ADC20 5 mg/kg group. The day of first administration is defined as day 0. Mice in the vehicle group were given the solvent of ADC drugs with the same frequency and administration route. The tumor volume of mice in each group was measured twice a week. The experiment was end on day 27, and the tumor growth inhibition rate (TGI) was calculated as follows: TGI (%)=[1−(the mean tumor volume of the treatment group on the end day−the mean tumor volume of the treatment group on the first day)/(the mean tumor volume of the vehicle group on the end day−the mean tumor volume of the vehicle group on the first day)]×100%.
8.2) For evaluation the dose-dependent antitumor efficacy in bladder cancers, the RT112 cells bearing BALB/c nude mice were randomized grouped and treated by solvent; ADC20 8 mg/kg single dose and ADC20 8 mg/kg, QW, 2 times. The experiment was end on day 33, and the tumor growth inhibition rate (TGI) was calculated as follows: TGI (%)=[1−(the mean tumor volume of the treatment group on the end day−the mean tumor volume of the treatment group on the first day)/(the mean tumor volume of the vehicle group on the end day−the mean tumor volume of the vehicle group on the first day)]×100%. The ADC groups continued to be observed until day 84.

[3] = system: AMB-BT-0039T cells with FGFR3-TACC3 fusion; assay: Subcutaneous glioblastoma PDX model; format: in vivo, BALB/c nude mice; conditions: AMB-BT-0039T PDX, 8 mg/kg, QW, 2 times
Description: 1) AMB-BT-0039T cells with FGFR3-TACC3 fusion (GBM, patients-derived cells) in exponential growth stage were collected and counted for tumor inoculation. 0.1 mL of matrix gel buffer (PBS:Matrigel=1:1) was used to subcutaneously inject 1×10^6 cells into the right flank of SPF female BALB/c nude mice aged 6-8 weeks. The tumor diameter was measured with a caliper and the tumor volume was calculated according to the formula V=0.5 a×b^2 (wherein a is the long diameter of the tumor and b is the short diameter of the tumor). When the mean tumor volume was about 100-300 mm^3, the mice were randomized into vehicle group, and ADC20 8 mg/kg group. The day of first administration is defined as day 0. Mice in the vehicle group were given the solvent of ADC drugs with the same frequency and administration route. The tumor volume of mice in each group was measured twice a week. The experiment was end on day 24, and the tumor growth inhibition rate (TGI) was calculated as follows: TGI (%)=[1−(the mean tumor volume of the treatment group on the end day−the mean tumor volume of the treatment group on the first day)/(the mean tumor volume of the vehicle group on the end day−the mean tumor volume of the vehicle group on the first day)]×100%.

[4] = 8 mg/kg, QW, 2 times (repeat), day 33

B1: ADC20: ADC formed by ligase site-specific conjugation of Linker-Payload 2 to anti-FGFR3 antibody A9Q (conjugate)
heavy: EVQLLESGGGLVQPGGSLRLSCAASGFTFSSYDMSWVRQAPGKGLEWVSGIYSGDGSIYYADSVKGRFTISRDNSKNTLYLQMNSLRAEDTAVYYCAKDGPMNEESRFDYWGQGTLVTVSS[human IgG1 constant region not written out]
light: QSVLTQPPSASGTPGQRVTISCSGSSSNIGNNYVSWYQQLPGTAPKLLIYADSKRPSGVPDRFSGSKSGTSASLAISGLRSEDEADYYCASWDYSLSGYVFGGGTKLTVLGQPKAAPSVTLFPPSSEELQANKATLVCLISDFYPGAVTVAWKADSSPVKAGVETTTPSKQSNNKYAASSYLSLTPEQWKSHRSYSCQVTHEGSTVEKTVAPTECGALPETGG
[1]
  TGI: 95.08%
  Tumor volume: 216 ± 52 mm^3
UM-UC1 cells
  TGI: 82.71%
  Tumor volume: 402 ± 104 mm^3
[2]
  internalization activity: comparable internalization activity with A9Q
RT112 cells; 5 mg/kg, QW, 2 times, day 27
  TGI: 107.08%
RT112 cells; 5 mg/kg, QW, 2 times, day 27, Mean ± SEM
  Tumor volume: 32 ± 7 mm^3
RT112 cells; [4]
  TGI: 107.65%
  Tumor volume: 16 ± 16 mm^3
RT112 cells; 8 mg/kg, QW, 2 times (repeated dose), observed until day 84
  completed response (CR): caused CR
RT112 cells; 8 mg/kg, single dose, day 33
  TGI: 106.34%
  Tumor volume: 36 ± 45 mm^3
[3]; day 24
  TGI: 100.03%
[3]; day 24, Mean ± SEM
  Tumor volume: 100 ± 18 mm^3

From patent US20250387505A1, “ANTI-FGFR3 ANTIBODY CONJUGATE AND MEDICAL USE THEREOF” (GENEQUANTUM HEALTHCARE (SUZHOU) CO., LTD., priority 2022, published 2025)
